Reference: PMC4336329 (PLoS ONE, 2015)
Out of some 310,000 compounds screened, about 2,200 (0.71%) showed an effect of 50% or more. The effect is printed as a negative number. This is one part of the list.

Biological target: human ether-à-go-go-related gene (hERG) potassium channel (human, UniProt Q12809)
Experiment: primary screen, population patch clamp on CHO cells stably expressing hERG

Chain of human ether-à-go-go-related gene (hERG) potassium channel (Q12809 whole entry, looked up): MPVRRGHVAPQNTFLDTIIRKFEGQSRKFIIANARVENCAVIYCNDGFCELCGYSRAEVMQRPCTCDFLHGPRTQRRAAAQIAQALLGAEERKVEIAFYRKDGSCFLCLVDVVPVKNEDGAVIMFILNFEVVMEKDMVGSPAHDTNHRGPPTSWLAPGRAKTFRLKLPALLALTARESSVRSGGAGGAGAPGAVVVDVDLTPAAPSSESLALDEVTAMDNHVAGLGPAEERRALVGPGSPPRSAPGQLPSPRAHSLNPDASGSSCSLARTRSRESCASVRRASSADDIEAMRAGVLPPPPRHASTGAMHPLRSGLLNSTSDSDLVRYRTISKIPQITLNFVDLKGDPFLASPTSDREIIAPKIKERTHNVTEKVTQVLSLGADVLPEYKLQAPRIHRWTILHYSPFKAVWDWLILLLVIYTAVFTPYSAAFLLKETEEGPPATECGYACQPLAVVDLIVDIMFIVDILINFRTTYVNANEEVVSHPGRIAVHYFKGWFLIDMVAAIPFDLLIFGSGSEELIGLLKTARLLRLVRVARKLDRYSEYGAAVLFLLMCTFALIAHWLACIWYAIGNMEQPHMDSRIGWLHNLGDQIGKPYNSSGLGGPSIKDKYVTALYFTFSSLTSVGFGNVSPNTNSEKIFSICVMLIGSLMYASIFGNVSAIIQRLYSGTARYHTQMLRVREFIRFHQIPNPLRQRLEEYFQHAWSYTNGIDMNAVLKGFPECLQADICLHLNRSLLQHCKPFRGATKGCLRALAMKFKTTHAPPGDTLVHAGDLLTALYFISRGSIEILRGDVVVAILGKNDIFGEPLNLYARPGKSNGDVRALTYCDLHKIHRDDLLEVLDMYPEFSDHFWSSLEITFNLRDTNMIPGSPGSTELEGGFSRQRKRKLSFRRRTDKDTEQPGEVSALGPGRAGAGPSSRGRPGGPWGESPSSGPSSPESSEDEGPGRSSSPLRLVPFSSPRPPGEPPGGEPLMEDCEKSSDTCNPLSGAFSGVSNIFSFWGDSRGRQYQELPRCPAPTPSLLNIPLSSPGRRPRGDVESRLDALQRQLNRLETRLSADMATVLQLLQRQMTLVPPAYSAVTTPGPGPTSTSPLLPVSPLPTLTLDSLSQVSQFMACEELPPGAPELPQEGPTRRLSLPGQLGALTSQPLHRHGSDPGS

In order of rising “hERG current change (%, negative = inhibition) at 1uM” value:
1. CN(C)CCn1c(=N)n(CC(O)c2ccc(Cl)c(Cl)c2)c2ccccc21.Cl (stereo not drawn)  -41.3%
2. [O-][n+]1c2cc(C(F)(F)F)ccc2c2n1CCN=C2c1ccc(Cl)cc1  -28.3%
3. CCOc1ccc(N2CC(=O)N(c3ccc(OCC)cc3)CC2=O)cc1  -19.4%
4. COc1cccc(CN2CCC(n3nccc3NC(=O)CCOc3ccccc3)CC2)c1O  -16.9%
5. CCOc1ccc(C(=O)Nc2ccc(N3CCN(C)CC3)cc2)cc1  -13.2%
6. COCc1ccc(C(=O)N(C)CC2CCCN(CCc3ccccc3F)C2)o1 (stereo not drawn)  -11.7%
7. Cc1ccc(CNC(=O)C2CN(S(C)(=O)=O)c3cc(Cl)ccc3O2)cc1 (stereo not drawn)  -7.01%
8. CCCC(NS(=O)(=O)c1ccc(Br)cc1)C(=O)O (stereo not drawn)  -5.95%
9. COc1ccc(-c2n[nH]c(C)c2-c2ccc(OC)c(OC)c2)c(O)c1  -4.84%
10. COc1ccc(CCNC(=O)CSc2cccc3cccnc23)cc1OC  -2.88%
11. Cc1ccc(Cn2nnc3c(=O)[nH]c(C4CCN(C(=O)c5cccs5)CC4)nc32)cc1  -2.57%
12. Cc1cccc(C)c1NC1=NCCCCS1  -2.45%
13. CCOC(=O)/C(=N\Nc1ccccc1)S(=O)(=O)c1ccccc1  -2.31%
14. OC(C#CCN1CCCC1)(c1ccccc1)c1cccc(F)c1 (stereo not drawn)  -2.08%
15. COc1ccc(C(c2nnnn2Cc2ccccc2)N2CCN(c3nc4ccccc4s3)CC2)cc1OC.Cl (stereo not drawn)  -1.68%
16. C=CCNc1oc(/C=C/c2ccccc2)nc1C#N  -1.24%
17. COc1ccc(N(CC(=O)NCCSc2ccccn2)S(C)(=O)=O)cc1Cl  -1.02%
18. CC(=O)c1cccc(NC(=O)c2ccncc2)c1  -0.871%
19. COc1cccc(SCc2noc(C(=O)NCC3CC3)c2C(=O)NCC2CC2)c1  -0.807%
20. CCn1cc(C(=O)O)c(=O)c2cc(Br)ccc21  -0.38%
21. O=C(NCc1ccc(F)cc1)c1cnc2n(c1=O)CCS2  -0.209%
22. Cc1ccc(C2C(=O)N(C3CCC(C)CC3)CC(=O)N2C2CC2)cc1 (stereo not drawn)  0.0248%
23. CC(=O)Oc1ccc2nc(-c3ccco3)oc(=O)c2c1  0.312%
24. O=[N+]([O-])c1ccc2c(c1)C(N1CCOCC1)/C(=C/C1(O)CCCCC1)O2 (stereo not drawn)  0.6%
25. c1nc(NC2CCCCC2)c2[nH]cnc2n1  1.6%
26. C/C(CC(=O)Nc1cccc(Cl)c1C)=N\NC(=O)Cc1csc(N)n1  1.6%
27. CC(=O)Nc1ccc(OC(=O)Oc2ccc(NC(C)=O)cc2)cc1  1.86%
28. COC(=O)CSc1nnc(C)c(=O)[nH]1  2.75%
29. Cc1ccc(CNC(=O)CCc2nnc(Cc3ccc(-c4ccccc4)cc3)o2)o1  2.89%
30. CN(Cc1nc2ccccc2c(=O)[nH]1)CC(O)COCc1ccco1 (stereo not drawn)  3.53%
31. Cc1ccc(N2C(=O)NC(=O)/C(=C/c3ccc(OC(=O)c4cccs4)cc3)C2=O)cc1  3.68%
32. CCOc1ccc(NC(=O)CN2C(=O)NC(CCSC)C2=O)cc1 (stereo not drawn)  4.24%
33. CCOC(=O)N1CCN(C(c2ccc(F)cc2)c2sc3nc(C)nn3c2O)CC1 (stereo not drawn)  4.66%
34. Cc1ccc(NC(=S)NNC(=O)c2nn(C)c(C)c2Cl)cc1  5.27%
35. C1=Nc2c(NCc3ccccc3)ncnc2Oc2ccccc21  5.41%
36. C=CCN1C(=O)C2(NC(=O)c3ccccc3N2)c2ccccc21 (stereo not drawn)  5.82%
37. O=C(CCNC(=O)c1ccc(Br)cc1)NNC(=O)c1ccccc1O  6.62%
38. O=C(O)c1ccccc1SC1CC(=O)N(c2ccc3c(c2)OCO3)C1=O (stereo not drawn)  6.89%
39. COc1ccccc1C(c1nnnn1CCc1ccccc1)N1CCN(c2ccccc2)CC1 (stereo not drawn)  7.04%
40. Oc1cccc(/C=N/N=C/c2cccc(O)c2O)c1O  7.33%
41. COc1ccc(C(=O)N/N=C(\c2ccccc2)c2ccccn2)cc1  7.39%
42. COc1ccc(C(=O)N2CCCC(C(=O)N3CCN(c4ccccc4)CC3)C2)cc1 (stereo not drawn)  7.45%
43. CC(C)(C)NC(=O)NC(=O)CSc1ccc(S(=O)(=O)N2CCCCC2)cn1  8.1%
44. N#C/C(=C1/CCCCCN1)c1nc2ccccc2[nH]1  8.18%
45. Oc1ccc(C[C@H]2CNCCN2CC2CCCCC2)cc1  8.22%
46. Cl.O=C(NCc1ccncc1)c1cccc(Cn2cc(Br)cn2)c1  8.34%
47. COc1cccc(NC(=S)N(Cc2ccccn2)Cc2ccccc2Cl)c1  8.48%
48. COc1cc(C(=O)N/C(=C\c2cn(C)c3ccccc23)C(=O)NCCCn2ccnc2)cc(OC)c1OC  8.83%
49. Cc1cc(/C=C(\C#N)c2nnc(N3CCOCC3)n2-c2ccccc2)c(C)n1-c1ccccc1  9.2%
50. O=C(O)Cc1ccc(NC(=O)COc2ccc3ccccc3c2)cc1  9.36%
51. COc1ccccc1NS(=O)(=O)c1ccc(C)c(NC(=O)C2CCCO2)c1 (stereo not drawn)  9.66%
52. CC(C)CSC1=NSC2=NC(=O)/C(=C\c3coc4ccccc4c3=O)C(=N)N12  10.1%
53. Cc1cc(NC(=O)CCC(=O)N(Cc2ccco2)C2(C(=O)NC3CCCC3)CCCCC2C)no1 (stereo not drawn)  10.2%
54. CCOc1cccc(C(=O)Nc2cnn(Cc3ccccc3)c2)c1  10.7%
55. O=C(c1cccnc1)N1CCN(S(=O)(=O)c2cccc(Cl)c2)CC1  10.8%
56. CC(C)NC(=O)CSc1nnc(C2CC2)n1-c1ccccc1  11%
57. NC(=O)N1CCCC1C(=O)Nc1ccc(Cl)c(Cl)c1 (stereo not drawn)  11.3%
58. Cc1ccc(-n2nc(C)c3c(C)c(CCC(=O)NCC4CCCO4)c(=O)n(C)c32)cc1 (stereo not drawn)  11.4%
59. CCn1c(CNC(=O)c2ccco2)nnc1SCC(=O)c1ccc(F)cc1  11.6%
60. O=c1c2cnn(-c3ccccc3Cl)c2ncn1Cc1cccnc1  11.9%
61. O=C(NCCc1ccc(Cl)cc1)C1CCCO1 (stereo not drawn)  12.2%
62. CN(C)CCCNC(=O)c1ccc(=O)[nH]n1  12.2%
63. Cc1cc(NC(=O)c2ccc3c(c2)OCCO3)ccc1NC(=O)c1ccco1  12.2%
64. CC(C)(C)c1ccc(C(=O)NCCNC(=O)c2ccco2)cc1  12.2%
65. CC1=CN2C(=N)/C(=C/c3cn(CCCOc4ccccc4C)c4ccccc34)C(=O)N=C2S1  12.8%
66. O=C(Cc1ccccc1)c1ccc(Cl)cc1  13.2%
67. C[C@H](/C=C/[C@@]1(O)[C@H](C)C[C@H](O)CC1(C)C)O[C@@H]1O[C@H](CO)[C@@H](O)[C@H](O)[C@H]1O  13.2%
68. Cc1cc(NS(=O)(=O)c2ccc(NC(=O)CSc3nnc(-c4ccco4)n3C)cc2)nc(C)n1  13.2%
69. O=c1c([N+](=O)[O-])c(N2CCOCC2)c2ccccc2n1Cc1ccccc1  13.3%
70. CCCCOc1ccc(-c2c(C#N)c(N)[nH]c(=S)c2C#N)cc1  13.7%
71. COCCNC(=O)CSc1nc2cc(OC)c(OC)cc2c(=O)n1CCc1ccc(S(N)(=O)=O)cc1  13.8%
72. O=C(O)Cn1c(=O)c2c3c(sc2n(Cc2ccccc2)c1=O)CCCC3  13.9%
73. Nc1nc(-c2cccnc2)nn1S(=O)(=O)c1ccccc1  14%
74. COc1cc(/C=N/NC(=O)[C@H](Cc2c[nH]c3ccccc23)NC(=O)OCC(C)C)cc([N+](=O)[O-])c1O  14%
75. Nc1ccc(C(=O)Nc2ccc3nc(-c4cccnc4)[nH]c3c2)cc1  14.2%
76. c1ccc(C2Nc3cccc4cccc(c34)N2)cc1  14.3%
77. COc1ccccc1OCCn1ccnc1  14.4%
78. C/C(CC(=O)NCc1ccco1)=N\NC(=O)c1ccc(Cl)cc1Cl  15.2%
79. CC(C)(C)c1nc(-c2ccccc2)nc2c1OCCC2  15.6%
80. Br.CC(=O)NNc1nc(-c2ccccc2)cs1  15.6%
81. O=c1[nH]cnc2c1nc(NCc1ccccc1)n2C1O[C@@H](CO)[C@H](O)[C@@H]1O (stereo partly drawn)  15.7%
82. Cc1cc(C)c2c(n1)nn1c(NCCN3CCOCC3)cc(C)nc21  16.1%
83. CCCSC1=C(C#N)C(c2ccccc2C)C(C(=O)OC)C(=O)N1 (stereo not drawn)  16.2%
84. COc1cccc(CN(C(=O)c2cc3ccccc3oc2=O)C2CCS(=O)(=O)C2)c1 (stereo not drawn)  17.8%
85. O=C1c2cccc3cccc(c23)C(=O)N1CCN1CCN(C(=S)Nc2ccc(Cl)cc2)CC1  20.8%
86. Cc1cc(C)c2nc(SCC(=O)N3CC(=O)Nc4ccccc43)c(C#N)cc2c1  23.5%
87. CCCCCCC(=O)N(O)C1CC(=O)N(c2ccccc2)C1=O (stereo not drawn)  25.2%
